# Reference: PMC7588591
# The chains behind the UniProt entries cited, without tags or fusion partners. Residues count along the entry.
# UniProt Q7Z434, residues 360-540: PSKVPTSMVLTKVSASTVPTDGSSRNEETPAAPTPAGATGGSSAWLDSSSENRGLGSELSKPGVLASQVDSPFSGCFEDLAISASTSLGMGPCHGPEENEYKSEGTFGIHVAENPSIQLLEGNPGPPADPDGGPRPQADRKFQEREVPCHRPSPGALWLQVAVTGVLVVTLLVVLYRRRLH
# These are yes or no findings as the source states them, for the method shown. In cells and extracts the contact can be indirect. Some results given as binding are weak or reduced against the parent protein; the word gives no strength.
# Target: MAVS (360–540) (UniProt Q7Z434)
# Assay: co-IP
substance,measurement,value
"SARS-CoV-2 membrane glycoprotein M (tagged, transfected) (from UniProt P0DTC5 1-222)",binding,binds
